# Data published in the supplement of paper PMC12217912.
# The other results are listed elsewhere or left out. Sequences were assembled here from the parent chain. Inactive controls read about 0.05.
# B1: TEV protease; numbered along this chain (parent)
# chain: MGESLFKGPRDYNPISSSICHLTNESDGHTTSLYGIGFGPFIITNKHLFRRNNGTLVVQSLHGVFKVKDTTTLQQHLVDGRDMIIIRMPKDFPPFPQKLKFREPQREERICLVTTNFQTKSMSSMVSDTSCTFPSGDGIFWKHWIQTKDGQCGSPLVSTRDGFIVGIHSASNFTNTNNYFTSVPKNFMELLTNQEAQQWVSGWRLNADSVLWGGHKVFMVKPEEPFQPVKEATQL
# Variants of: B1
# Test: raw area under fraction-flipped curve 0-4 h after induction (AUC4h, not background-subtracted), DNA-recorder readout of cleavage of the substrate (dimensionless); higher = more cleavage of the substrate by the protease variant
# Settings: temperature: 34 °C; time window: 0-4 h after rhamnose induction
# 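Note: Bxb1 expression induced with 0.2% (w/v) L-rhamnose at OD600 near 0.5, cultures sampled hourly, flipped fraction per protease–substrate barcode pair counted by paired-end Illumina sequencing.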
variant,measurement,value
MGESLFKGPRDYNPISSSICHLTNESDGHTTSLYGIGFGPFIITNKHLFRRNNGTLVVQSLHGVFKVKDTTTLQQHLVDGRDMIIIRMPKDFPPFPQKLKCREPQREERICLVTTNFQTKSMSSMVSDTSCTFPSGDGIFWKHWIQTKDGQCGSPLVSTRDGFIVGIHSASNFTNTNNYFTSVPKNFMELLTNQEAQQWVSGWRLNADSVLWGGHKVFMVKPEEPFQPVKEATQL [F101C],area with substrate ENLDFQS,0.0751
same,area with substrate ENLEFQS,0.0507
same,area with substrate ENLFFQS,0.0535
same,area with substrate ENLGFQS,0.0361
same,area with substrate ENLHFQS,0.0543
same,area with substrate ENLIFQS,0.0649
same,area with substrate ENLKFQS,0.0685
same,area with substrate ENLLFQS,0.0665
same,area with substrate ENLPFQS,0.0568
same,area with substrate ENLQFQS,0.0483
same,area with substrate ENLRFQS,0.0874
same,area with substrate ENLSFQS,0.0568
same,area with substrate ENLVFQS,0.0619
MGESLFKGPRDYNPISSSICHLTNESDGHTTSLYGIGFGPFIITNKHLFRRNNGTLVVQSLHGVFKVKDTTTLQQHLVDGRDMIIIRMPKDFPPDPQKLKFREPQREERICLVTTNFQTKSMSSMVSDTSCTFPSGDGIFWKHWIQTKDGQCGSPLVSTRDGFIVGIHSASNFTNTNNYFTSVPKNFMELLTNQEAQQWVSGWRLNADSVLWGGHKVFMVKPEEPFQPVKEATQL [F95D],area with substrate ENLDFQS,0.0471
same,area with substrate ENLIFQS,0.0358
same,area with substrate ENLLFQS,0.0402
same,area with substrate ENLPFQS,0.0556
MGESLFKGPRDYNPISSSICHLTNESDGHTTSLYGIGFGPFIITNKHLFRRNNGTLVVQSLHGVFKVKDTTTLQQHLVDGRDMIIIRMPKDFPPKPQKLKFREPQREERICLVTTNFQTKSMSSMVSDTSCTFPSGDGIFWKHWIQTKDGQCGSPLVSTRDGFIVGIHSASNFTNTNNYFTSVPKNFMELLTNQEAQQWVSGWRLNADSVLWGGHKVFMVKPEEPFQPVKEATQL [F95K],area with substrate ENLDFQS,0.0477
same,area with substrate ENLFFQS,0.0627
same,area with substrate ENLKFQS,0.0483
same,area with substrate ENLMFQS,0.0427
same,area with substrate ENLNFQS,0.0565
same,area with substrate ENLQFQS,0.0623
same,area with substrate ENLRFQS,0.0492
same,area with substrate ENLSFQS,0.0376
same,area with substrate ENLWFQS,0.0469
MGESLFKGPRDYNPISSSICHLTNESDGHTTSLYGIGFGPFIITNKHLFRRNNGTLVVQSLHGVFKVKDTTTLQQHLVDGRDMIIIRMPKDFPPCPQKLKFREPQREERICLVTTNFQTKSMSSMVSDTSCTFPSGDGIFWKHWIQTKDGQCGSPLVSTRDGFIVGIHSASNFTNTNNYFTSVPKNFMELLTNQEAQQWVSGWRLNADSVLWGGHKVFMVKPEEPFQPVKEATQL [F95C],area with substrate ENLDFQS,0.0526
same,area with substrate ENLFFQS,0.0799
same,area with substrate ENLIFQS,0.0703
same,area with substrate ENLKFQS,0.0653
same,area with substrate ENLLFQS,0.0608
same,area with substrate ENLNFQS,0.0622
same,area with substrate ENLPFQS,0.0499
same,area with substrate ENLQFQS,0.067
same,area with substrate ENLRFQS,0.0801
same,area with substrate ENLVFQS,0.0426
MGESLFKGPRDYNPISSSICHLTNESDGHTTSLYGIGFGPFIITNKHLFRRNNGTLVVQSLHGVFKVKDTTTLQQHLVDGRDMIIIRMPKDFPPFPQKLKFREPQREERICLVTANFQTKSMSSMVSDTSCTFPSGDGIFWKHWIQTKDGQCGSPLVSTRDGFIVGIHSASNFTNTNNYFTSVPKNFMELLTNQEAQQWVSGWRLNADSVLWGGHKVFMVKPEEPFQPVKEATQL [T115A],area with substrate ENLDFQS,0.0547
same,area with substrate ENLEFQS,0.0602
same,area with substrate ENLFFQS,0.0813
same,area with substrate ENLHFQS,0.0768
same,area with substrate ENLIFQS,0.0775
same,area with substrate ENLNFQS,0.0797
same,area with substrate ENLPFQS,0.066
same,area with substrate ENLRFQS,0.0665
same,area with substrate ENLVFQS,0.0838
same,area with substrate ENLWFQS,0.0511
MGESLFKGPRDYNPISSSICHLTNESDGHTTSLYGIGFGPFIITNKHLFRRNNGTLVVQSLHGVFKVKDTTTLQQHLVDGRDMIIIRMPKDFPPFPQKLKFREPQREERYCLVTTNFQTKSMSSMVSDTSCTFPSGDGIFWKHWIQTKDGQCGSPLVSTRDGFIVGIHSASNFTNTNNYFTSVPKNFMELLTNQEAQQWVSGWRLNADSVLWGGHKVFMVKPEEPFQPVKEATQL [I110Y],area with substrate ENLDFQS,0.0487
same,area with substrate ENLFFQS,0.0616
same,area with substrate ENLHFQS,0.0566
same,area with substrate ENLMFQS,0.0697
same,area with substrate ENLNFQS,0.0692
same,area with substrate ENLQFQS,0.0452
same,area with substrate ENLRFQS,0.0424
same,area with substrate ENLVFQS,0.0656
MGESLFKGPRDYNPISSSICHLTNESDGHTTSLYGIGFGPFIITNKHLFRRNNGTLVVQSLHGVFKVKDTTTLQQHLVDGRDMIIIRMPKDFPSFPQKLKFREPQREERICLVTTNFQTKSMSSMVSDTSCTFPSGDGIFWKHWIQTKDGQCGSPLVSTRDGFIVGIHSASNFTNTNNYFTSVPKNFMELLTNQEAQQWVSGWRLNADSVLWGGHKVFMVKPEEPFQPVKEATQL [P94S],area with substrate ENLDFQS,0.0757
same,area with substrate ENLEFQS,0.0659
same,area with substrate ENLFFQS,0.0902
same,area with substrate ENLHFQS,0.0626
same,area with substrate ENLIFQS,0.0779
same,area with substrate ENLLFQS,0.0836
same,area with substrate ENLNFQS,0.053
same,area with substrate ENLPFQS,0.0446
same,area with substrate ENLSFQS,0.0602
MGESLFKGPRDYNPISSSICHLTNESDGHTTSLYGIGFGPFIITNKHLFRRNNGTLVVQSLHGVFKVKDTTTLQQHLVDGRDMIIIRMPKDFPPFPQKLKFREPQRIERICLVTTNFQTKSMSSMVSDTSCTFPSGDGIFWKHWIQTKDGQCGSPLVSTRDGFIVGIHSASNFTNTNNYFTSVPKNFMELLTNQEAQQWVSGWRLNADSVLWGGHKVFMVKPEEPFQPVKEATQL [E107I],area with substrate ENLDFQS,0.0627
same,area with substrate ENLFFQS,0.0512
same,area with substrate ENLGFQS,0.0726
same,area with substrate ENLHFQS,0.06
same,area with substrate ENLKFQS,0.0869
same,area with substrate ENLNFQS,0.0727
same,area with substrate ENLPFQS,0.083
same,area with substrate ENLSFQS,0.0602
MGESLFKGPRDYNPISSSICHLTNESDGHTTSLYGIGFGPFIITNKHLFRRNNGTLVVQSLHGVFKVKDTTTLQQHLVDGRDMIIIRMPKDFPPFPQKLKFREPPREERICLVTTNFQTKSMSSMVSDTSCTFPSGDGIFWKHWIQTKDGQCGSPLVSTRDGFIVGIHSASNFTNTNNYFTSVPKNFMELLTNQEAQQWVSGWRLNADSVLWGGHKVFMVKPEEPFQPVKEATQL [Q105P],area with substrate ENLDFQS,0.0475
same,area with substrate ENLFFQS,0.0312
same,area with substrate ENLHFQS,0.0566
same,area with substrate ENLIFQS,0.0454
same,area with substrate ENLKFQS,0.0493
same,area with substrate ENLLFQS,0.0514
same,area with substrate ENLNFQS,0.0579
same,area with substrate ENLPFQS,0.0497
same,area with substrate ENLQFQS,0.0236
same,area with substrate ENLSFQS,0.0378
same,area with substrate ENLVFQS,0.042
MGESLFKGPRDYNPISSSICHLTNESDGHTTSLYGIGFGPFIITNKHLFRRNNGTLVVQSLHGVFKVKDTTTLQQHLVDGRDMIIIRMPKRFPPFPQKLKFREPQREERICLVTTNFQTKSMSSMVSDTSCTFPSGDGIFWKHWIQTKDGQCGSPLVSTRDGFIVGIHSASNFTNTNNYFTSVPKNFMELLTNQEAQQWVSGWRLNADSVLWGGHKVFMVKPEEPFQPVKEATQL [D91R],area with substrate ENLDFQS,0.0679
same,area with substrate ENLGFQS,0.0745
same,area with substrate ENLPFQS,0.0396
same,area with substrate ENLVFQS,0.0927
same,area with substrate ENLWFQS,0.0815
MGESLFKGPRDYNPISSSICHLTNESDGHTTSLYGIGFGPFIITNKHLFRRNNGTLVVQSLHGVFKVKDTTTLQQHLVDGRDMIIIRMPKNFPPFPQKLKFREPQREERICLVTTNFQTKSMSSMVSDTSCTFPSGDGIFWKHWIQTKDGQCGSPLVSTRDGFIVGIHSASNFTNTNNYFTSVPKNFMELLTNQEAQQWVSGWRLNADSVLWGGHKVFMVKPEEPFQPVKEATQL [D91N],area with substrate ENLDFQS,0.0744
same,area with substrate ENLFFQS,0.126
same,area with substrate ENLIFQS,0.0842
same,area with substrate ENLKFQS,0.0853
same,area with substrate ENLLFQS,0.0904
same,area with substrate ENLNFQS,0.0626
same,area with substrate ENLRFQS,0.086
same,area with substrate ENLSFQS,0.0261
same,area with substrate ENLWFQS,0.0673
